# Data taken from article PMC4336329 (PLoS ONE, 2015).
# The campaign covered roughly 310,000 compounds. About 2,200 (0.71%) showed an effect of 50% or more. The effect is printed as a negative number. The list shows a part of the results.
# Biological target: human ether-à-go-go-related gene (hERG) potassium channel (human, UniProt Q12809)
# Test: primary screen, population patch clamp on CHO cells stably expressing hERG
# Sequence of human ether-à-go-go-related gene (hERG) potassium channel (Q12809 whole entry, looked up): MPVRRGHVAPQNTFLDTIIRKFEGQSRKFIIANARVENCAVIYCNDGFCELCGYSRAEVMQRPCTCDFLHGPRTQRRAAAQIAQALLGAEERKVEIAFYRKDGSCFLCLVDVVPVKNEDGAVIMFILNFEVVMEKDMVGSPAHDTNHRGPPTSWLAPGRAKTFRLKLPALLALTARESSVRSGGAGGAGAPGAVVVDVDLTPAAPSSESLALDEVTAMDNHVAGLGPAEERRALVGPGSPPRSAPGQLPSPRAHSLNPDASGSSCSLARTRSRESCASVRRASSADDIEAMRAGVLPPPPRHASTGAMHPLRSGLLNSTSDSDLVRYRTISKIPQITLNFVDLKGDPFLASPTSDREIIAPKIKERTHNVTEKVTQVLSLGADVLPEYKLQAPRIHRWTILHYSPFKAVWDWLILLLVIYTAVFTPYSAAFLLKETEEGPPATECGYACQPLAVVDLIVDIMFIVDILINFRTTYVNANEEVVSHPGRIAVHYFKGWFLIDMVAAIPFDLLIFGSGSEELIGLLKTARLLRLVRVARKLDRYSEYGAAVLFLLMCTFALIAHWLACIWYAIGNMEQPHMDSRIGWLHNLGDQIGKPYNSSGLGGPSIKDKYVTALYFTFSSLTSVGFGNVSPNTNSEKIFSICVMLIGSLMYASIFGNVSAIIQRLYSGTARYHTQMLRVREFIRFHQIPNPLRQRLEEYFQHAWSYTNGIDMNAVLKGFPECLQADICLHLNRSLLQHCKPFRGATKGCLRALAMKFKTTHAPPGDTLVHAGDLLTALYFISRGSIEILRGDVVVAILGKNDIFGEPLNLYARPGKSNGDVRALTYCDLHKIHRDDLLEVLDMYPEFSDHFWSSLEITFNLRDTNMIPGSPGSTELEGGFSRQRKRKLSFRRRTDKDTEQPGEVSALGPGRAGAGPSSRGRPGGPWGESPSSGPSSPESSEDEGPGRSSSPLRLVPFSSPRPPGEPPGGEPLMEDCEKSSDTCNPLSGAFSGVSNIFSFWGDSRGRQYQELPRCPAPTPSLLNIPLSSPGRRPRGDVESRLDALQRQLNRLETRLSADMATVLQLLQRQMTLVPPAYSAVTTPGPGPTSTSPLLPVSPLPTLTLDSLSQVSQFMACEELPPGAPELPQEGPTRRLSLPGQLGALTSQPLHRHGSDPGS
row,Structure (SMILES),"hERG current change (%, negative = inhibition) at 1uM [%]"
1,COc1ccc(Nc2nc(-c3cccs3)nc3ccccc23)cc1,4.05
2,CCCc1cc2c(=O)c(-c3ccc4c(c3)OCCO4)coc2cc1OC(=O)c1ccco1,6.79
3,CC1CC(=O)N(CC(=O)Nc2ccc3c(c2)OCCO3)c2ccccc2S1 (stereo not drawn),-4.25
4,COC(=O)[C@@]1(Cc2ccccc2)[C@@H]2C(=CC(=O)[C@H]2CC(=O)C(=O)N(C)C)CN1C(=O)c1ccccc1,0.699
5,COCCNC(=O)C(NC(=O)C1CCCCC1)C12CC3CC(CC(C3)C1)C2 (stereo not drawn),8.5
6,CC(=O)O[C@@]12CO[C@@H]1C[C@H](O)[C@@]1(C)C(=O)[C@H](O)C3=C(C)[C@@H](O)C[C@@](O)([C@@H](OC(=O)c4ccccc4)C12)C3(C)C (stereo partly drawn),9.56
7,CC(C)C[C@H](NC(=O)OC(C)(C)C)c1nnc(SCc2cccc(F)c2)o1,0.227
8,Cc1cc(=O)[nH]c(Nc2cccc(Cl)c2C)n1,12
9,CCN1C(=O)c2ccccc2S(=O)(=O)c2ccc(C(=O)NCc3cccnc3)cc21,9.86
10,COc1ccccc1-c1nnc2n1N=C(C)CS2,6.03
11,COc1ccc(N2CCN(C(=O)COC(=O)c3oc4ccc(OC)cc4c3C)CC2)cc1,6.14
12,CC(C)(C)NC(=O)NC(=O)COC(=O)CCC1CCCCC1,12.8
13,Cc1cc2cc(C(c3nnnn3Cc3ccco3)N3CCc4ccccc4C3)c(=O)[nH]c2cc1C (stereo not drawn),-0.127
14,CCn1c(CN2CCN(C(=O)c3ccco3)CC2)nc2c1c(=O)n(C)c(=O)n2C,1.44
15,O=C(Nc1ccccn1)c1ccc(S(=O)(=O)N2CCCCCC2)cc1,5.88
16,CCOc1ccc(NS(=O)(=O)c2ccc3c(c2)N(C(C)=O)CCS3)cc1,6.56
17,O=C(Nc1ccc2c(c1)OCCO2)c1ccc(S(=O)(=O)N2CCCCC2)cc1,8.18
18,O=C(NCc1ccc(Cl)cc1)c1cnn2ccccc12,6.45
19,O=C(Nc1cccnc1)c1ccccc1-c1ccccc1,13.4
20,CCCC(C)NCC(=O)Nc1ccccc1-c1ccccc1.O=C(O)C(=O)O (stereo not drawn),-2.49
21,NC(=O)NOCc1ccc(Cl)cc1Cl,11.4
22,CCC(CC)c1nnc(NC(=O)Cc2cccs2)s1,11.6
23,Cc1c(C(=O)Nc2ccccc2)sc2nc3n(c(=O)c12)CCCCC3,7.59

row,Structure (SMILES),"hERG current change (%, negative = inhibition) at 1uM [%]"
1,COCCCn1c(C(=O)NCCN2CCOCC2)cc2c(=O)n3cccc(C)c3nc21,6.14
2,O=C(Nc1nnc(-c2ccccc2)s1)c1ccc(F)cc1,7.26
3,O=[N+]([O-])c1cc([N+](=O)[O-])c(Oc2c(F)cc(F)cc2F)cc1NN1CCCCC1,11.1
4,CCOC(=O)C1CCN(S(=O)(=O)c2cn(C)cn2)CC1,16.5
5,Cc1ccc(C(c2nnnn2Cc2ccccc2)N2CCN(Cc3ccccc3)CC2)cc1 (stereo not drawn),-4.31
6,O=C(CN(Cc1ccc(F)cc1)C(=O)CCC(=O)Nc1nccs1)NCc1ccc(F)cc1,3.16
7,Cc1ccc(NC(=S)NC2CCSc3ccccc32)cc1C (stereo not drawn),15.3
8,O=C(NC1(C(=O)NC2CCCCC2)CCCCC1)c1ccccn1,5.52
9,COc1cc(/C=C/C(=O)c2ccc(O)cc2)ccc1OCC#N,3.72
10,Cn1cc(Cl)c(-c2n[nH]c(=S)n2-c2ccccc2)n1,14
11,N/C(=N\OC(=O)Oc1ccccc1)c1ccc(Cl)cc1,10.6
12,O=C(CSCc1ccc(F)cc1)NCc1ccc2c(c1)OCO2,3.43
13,O=C(c1ccc2c(c1)OCO2)N1CCN(c2ccc(F)cc2)CC1,-6.94
14,COc1ccc(CNCCC(c2ccccc2)c2ccc(OC(C)C)cc2)cc1OC (stereo not drawn),-17.5
15,COc1ccc2c(c1)C(C)CC(C)(C)N2C(=O)Nc1ccccc1 (stereo not drawn),14.8
16,CC(=O)Nc1cccc(OCC(=O)Nc2sccc2C(N)=O)c1,11.5
17,COC(=O)[C@@H]1C[C@@]2(O)[C@H](O)[C@H](O)[C@H](O)C[C@H]2N1CC(c1ccccc1)c1ccccc1,12.9
18,Cc1cccc(N=Nc2c(O)[nH]c3ccc(Br)cc23)c1,11.4
19,CCc1cc(C(=O)COc2ccccc2F)c(O)cc1O,8.58
20,O=C1COc2ccc(S(=O)(=O)N3CCCCC3)cc2N1,16.9
21,Cc1cc(C)cc(NC(=O)CCCCCN2C(=O)[C@@H]3Cc4ccccc4CN3C2=O)c1,-1.5
22,CCn1nc(NC(=O)c2ccco2)c2cc3ccccc3nc21,9.82
23,CC1CCN(CCCNC(=O)c2ccc(CS(=O)(=O)Cc3ccc(Cl)cc3)o2)CC1,9.6

row,Structure (SMILES),"hERG current change (%, negative = inhibition) at 1uM [%]"
1,CCN1C(=O)CCCc2ccccc21,15.1
2,NC(N)=N/N=C/c1ccc(OCc2ccccc2)c(OCc2ccccc2)c1,2.55
3,CCCCCNC(=O)CCCCn1c(=O)[nH]c2cc(OCC)c(OCC)cc2c1=O,7.57
4,O=C(COC(=O)c1ccccc1-c1nc2ccccc2s1)NC1CCS(=O)(=O)C1 (stereo not drawn),5.07
5,C=C(C)c1cccc(C(C)(C)NC(=O)Nc2cc(C)ccn2)c1,9.77
6,O=c1c2ccccc2ncn1-c1ccc(Cl)cc1,14.1
7,COCCCn1c(SCC(=O)O)nc2cc(OC)c(OC)cc2c1=N,11.6
8,O=C(COc1ccc(Cl)cc1Br)NC1CC1,10.5
9,CN(C)/C=C1/C(=O)Nc2ccccc21,-0.29
10,O=C1NCCN1CCN1C(=O)c2ccccc2NC1c1ccccc1 (stereo not drawn),-6.13
11,Cc1ccc(OCC(=O)NC(=S)Nc2cccc(NC(=O)c3ccccc3)c2)cc1,6.01
12,CC(O)C(=O)NCCOCCOCCNC(=O)C(C)O (stereo not drawn),14.6
13,CCOC(=O)N1CCN(C(=O)CNC(=O)c2ccc(Cl)cc2)CC1,11.4
14,O=C(Cn1c(=O)oc2ccccc21)N1CCCCC1,12
15,COC(=O)c1ccc(C2C(C(=O)Nc3ccccc3C)=C(C)Nc3ncnn32)cc1 (stereo not drawn),12.5
16,COc1cc(NS(=O)(=O)c2ccc(NC(=O)COc3ccc(C)cc3)cc2)nc(OC)n1,5.67
17,CCOC(=O)c1c(-c2ccccc2)oc2ccc(OCC(=O)NN)cc12,11.4
18,COc1cccc(-c2nnc(SCN3C(=O)c4ccccc4C3=O)n2C)c1,4.94
19,CCCc1cc(C(=O)Nc2ccc(CC)cc2)no1,9.13
20,O=C(NCc1ccc(Cl)cc1)C1C2C=CC3(CN(Cc4cccnc4)C(=O)C13)O2 (stereo not drawn),10.6
21,Cc1ccc(-c2nc(CS(=O)(=O)CC(=O)NCCCN3CCOCC3)c(C)o2)cc1,9.19
22,COc1ccccc1NS(=O)(=O)c1cccc(NC(=O)C2CC2)c1,-0.73
23,COc1ccccc1NC(=O)Nc1ccc(F)c(F)c1,9.79

row,Structure (SMILES),"hERG current change (%, negative = inhibition) at 1uM [%]"
1,COc1ccc(CC(=O)Nc2cc(=O)n(C)c(=O)n2C)cc1,9.79
2,CCOC(=O)/C(=N\Nc1ccc(C(C)=O)cc1)c1csc(Nc2ccccc2)n1,10.1
3,c1nnc2c3c4c(sc3ncn12)CCC4,5.83
4,COC(=O)C(O)(CC(=O)Nc1ccc(OC(F)(F)F)cc1)C(F)(F)F (stereo not drawn),15.5
5,CC(=O)c1cccc(OCC(=O)Nc2cccc(C(=O)Nc3c(C)n(C)n(-c4ccccc4)c3=O)c2)c1,1.61
6,COc1cccc(C(=O)NC23CC4CC(CC(C4)C2)C3)c1,13.9
7,NC(=O)C(=O)NCCCN1CCOCC1,12.2
8,CCOC(=O)C1(Cc2cccc(Cl)c2)CCCN(C(=O)c2cc(C)[nH]n2)C1 (stereo not drawn),-7.02
9,CC1CCN(CCCOc2ccc(Cl)cc2Br)CC1,-45
10,CCOc1ccc(S(=O)(=O)Nc2nc3ccccc3nc2-n2ccc(=NC(=O)c3ccccc3C)cc2)cc1,5.51
11,CCNc1nc(NC(C)C)nc(N(C#N)Cc2ccccc2)n1,3.4
12,CC1(C)CC(=O)CC2(C1)NCC(c1ccccc1Cl)c1c2[nH]c2ccccc12.Cl (stereo not drawn),-3.21
13,CCC(CO)Oc1cc(NCc2ccccc2Cl)c2ncn(C(C)C)c2c1 (stereo not drawn),9.77
14,COc1cccc2[nH]c3c(N4CCCCC4)ncnc3c12,-10.6
15,COc1ccc(/C=N/NC(C)(C)C)c(OC)c1.Cl,6.88
16,Cc1ccc2cc(CN(Cc3ccc4c(c3)OCO4)Cc3nnnn3Cc3ccco3)c(=O)[nH]c2c1,5.45
17,CCOc1ccc(OCC)c(NC(=O)CSc2nnnn2CC)c1,0.711
18,Nc1ccccc1C#CCCCCO,7.71
19,O=C(Nc1ccc(Br)cc1)C1CCN(c2cnccn2)CC1,10.5
20,O=C1NC(=O)c2cc(NC(=O)C3CCCO3)ccc21 (stereo not drawn),-9.27
21,O=C(O)c1ccc(Oc2c(C(F)(F)F)oc3cc(O)ccc3c2=O)cc1,15.9
